From the supplement of paper PMC11125491
± gives the standard deviation of the averaged measurements. Growth of baker's yeast expressing single-residue variants of Pneumocystis jirovecii dihydrofolate reductase in 8.8 or 44 µM methotrexate (about 75% and 90% inhibition of the wild type). Selection coefficient per generation; 0 = like wild type, above 0 = less sensitive, below 0 = more sensitive or loss of function. No active / inactive call per row; the paper calls resistant above 0.220 (8.8 µM) or 0.243 (44 µM) together with a significance test. At 44 µM about 15% of codons end with one read or none, so the lowest values are floors (replicate rank correlation 0.74; 0.94 at 8.8 µM).

B1: UniProt A0EPZ9; numbered along this chain (parent)
chain: MDWQKSLTLIVALTLSRGIGLKNDLPWKLKSDMMFFSRVTSGLLVTRSTGQMNVVLMGRKTWESLPAHSRPLKNRINVVISRQEVLDLGGGAYHARSLDDALALLSQIYDSTSKIQLNRVFVIGGGELCKAAMEHSRLNRIIATVIHNEVDCDVFFPIDFRSSQSCLPWRKQDHSVLEAWVGSKVPQGKINENGFIYEFEMWIRDI

Variants of: B1
Test: selection coefficient against synonymous wild-type codons (log2 per generation); higher = faster growth than wild type
Conditions: with Saccharomyces cerevisiae carrying the variant on a plasmid
Method: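 Pooled growth of yeast carrying single-residue variants of P. jirovecii dihydrofolate reductase (own DFR1 gene intact), two passages at 30 °C, three cultures, sequenced before and after. Codons with under 15 starting reads are left out; codons of one change are averaged.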

Row | Variant | selection coefficient against synonymous wild-type codons (log2) (methotrexate 8.8 µM) | selection coefficient against synonymous wild-type codons (log2) (methotrexate 44 µM)
1 | MDWQKSLTLIVALTLSRGIGLKNDLPWKLKSDMMFFSRVWSGLLVTRSTGQMNVVLMGRKTWESLPAHSRPLKNRINVVISRQEVLDLGGGAYHARSLDDALALLSQIYDSTSKIQLNRVFVIGGGELCKAAMEHSRLNRIIATVIHNEVDCDVFFPIDFRSSQSCLPWRKQDHSVLEAWVGSKVPQGKINENGFIYEFEMWIRDI [T40W] | -0.666 ± 0.024 | -0.31 ± 0.12
2 | MDWQKSLTLIVALTLSRGIGLKNDLPWKLKSDMMFFSRVVSGLLVTRSTGQMNVVLMGRKTWESLPAHSRPLKNRINVVISRQEVLDLGGGAYHARSLDDALALLSQIYDSTSKIQLNRVFVIGGGELCKAAMEHSRLNRIIATVIHNEVDCDVFFPIDFRSSQSCLPWRKQDHSVLEAWVGSKVPQGKINENGFIYEFEMWIRDI [T40V] | 0.0277 ± 0.025 | 0.185 ± 0.029
3 | MDWQKSLTLIVALTLSRGIGLKNDLPWKLKSDMMFFSRVYSGLLVTRSTGQMNVVLMGRKTWESLPAHSRPLKNRINVVISRQEVLDLGGGAYHARSLDDALALLSQIYDSTSKIQLNRVFVIGGGELCKAAMEHSRLNRIIATVIHNEVDCDVFFPIDFRSSQSCLPWRKQDHSVLEAWVGSKVPQGKINENGFIYEFEMWIRDI [T40Y] | -0.647 ± 0.035 | -0.4 ± 0.028
4 | MDWQKSLTLIVALTLSRGIGLKNDLPWKLKSDMMFFSRVTCGLLVTRSTGQMNVVLMGRKTWESLPAHSRPLKNRINVVISRQEVLDLGGGAYHARSLDDALALLSQIYDSTSKIQLNRVFVIGGGELCKAAMEHSRLNRIIATVIHNEVDCDVFFPIDFRSSQSCLPWRKQDHSVLEAWVGSKVPQGKINENGFIYEFEMWIRDI [S41C] | -0.116 ± 0.029 | -0.0599 ± 0.048
5 | MDWQKSLTLIVALTLSRGIGLKNDLPWKLKSDMMFFSRVTEGLLVTRSTGQMNVVLMGRKTWESLPAHSRPLKNRINVVISRQEVLDLGGGAYHARSLDDALALLSQIYDSTSKIQLNRVFVIGGGELCKAAMEHSRLNRIIATVIHNEVDCDVFFPIDFRSSQSCLPWRKQDHSVLEAWVGSKVPQGKINENGFIYEFEMWIRDI [S41E] | 0.204 ± 0.015 | 0.237 ± 0.033
6 | MDWQKSLTLIVALTLSRGIGLKNDLPWKLKSDMMFFSRVTAGLLVTRSTGQMNVVLMGRKTWESLPAHSRPLKNRINVVISRQEVLDLGGGAYHARSLDDALALLSQIYDSTSKIQLNRVFVIGGGELCKAAMEHSRLNRIIATVIHNEVDCDVFFPIDFRSSQSCLPWRKQDHSVLEAWVGSKVPQGKINENGFIYEFEMWIRDI [S41A] | -0.0404 ± 0.058 | -0.0376 ± 0.053
7 | MDWQKSLTLIVALTLSRGIGLKNDLPWKLKSDMMFFSRVTFGLLVTRSTGQMNVVLMGRKTWESLPAHSRPLKNRINVVISRQEVLDLGGGAYHARSLDDALALLSQIYDSTSKIQLNRVFVIGGGELCKAAMEHSRLNRIIATVIHNEVDCDVFFPIDFRSSQSCLPWRKQDHSVLEAWVGSKVPQGKINENGFIYEFEMWIRDI [S41F] | -0.223 ± 0.066 | -0.113 ± 0.09
8 | MDWQKSLTLIVALTLSRGIGLKNDLPWKLKSDMMFFSRVTDGLLVTRSTGQMNVVLMGRKTWESLPAHSRPLKNRINVVISRQEVLDLGGGAYHARSLDDALALLSQIYDSTSKIQLNRVFVIGGGELCKAAMEHSRLNRIIATVIHNEVDCDVFFPIDFRSSQSCLPWRKQDHSVLEAWVGSKVPQGKINENGFIYEFEMWIRDI [S41D] | 0.336 ± 0.016 | 0.371 ± 0.033
